In the BET-seq Pho4 binding data (Le et al. 2018):
Some of the results follow. Values were computed here from the reads of four pooled replicates and scatter widely.

These sequences were tested against T1, Pho4 (S. cerevisiae) (UniProt P07270) (assay: relative binding free energy (BET-seq); higher = weaker binding). Details: reference: library average.
T1 sequence: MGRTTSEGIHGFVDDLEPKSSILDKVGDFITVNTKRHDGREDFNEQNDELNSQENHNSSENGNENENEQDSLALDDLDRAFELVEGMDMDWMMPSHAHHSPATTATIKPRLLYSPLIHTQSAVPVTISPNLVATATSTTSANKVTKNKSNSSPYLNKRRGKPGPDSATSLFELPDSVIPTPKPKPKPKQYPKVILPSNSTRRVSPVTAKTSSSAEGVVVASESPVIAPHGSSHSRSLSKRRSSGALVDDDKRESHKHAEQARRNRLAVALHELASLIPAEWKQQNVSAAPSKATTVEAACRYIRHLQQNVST

Sequence | relative binding free energy [kcal/mol]
GCGGGCACGTGGATCG | 0.04
TTATGCACGTGACTAG | 0.04
TGGATCACGTGGTACA | 0.13
TGTCGCACGTGTAGGT | -0.06
TAAGTCACGTGGGTAT | 0.06
ATACGCACGTGGTGTT | -0.28
AGGTACACGTGGGTCT | -0.12
ACCGGCACGTGGGGTG | -0.3
GTTATCACGTGCGTGC | 0.13
GCATACACGTGGGTAG | -0.05
TACTGCACGTGTTAGG | 0.05
TGGAGCACGTGAGAGT | 0.29
GGCGGCACGTGTGCTG | -0.01
GTCATCACGTGGTTTA | 0.26
ATGCACACGTGTTTAT | 0.1
GATGGCACGTGTTTAT | 0.01
GTTTACACGTGTTTTG | 0.19
GTAGGCACGTGGGTGC | -0.16
ATTGGCACGTGTAGGA | 0.06
GGGGCCACGTGGCGGC | -0.19
TTTAACACGTGAATAG | 0.31
TAGATCACGTGATTTG | 0.23
TCATACACGTGTAGGG | 0.09
GTATTCACGTGAAGTG | 0.3
GGCGGCACGTGATATG | 0.12
AATTGCACGTGGGAAT | 0

Sequence | relative binding free energy [kcal/mol]
TGATGCACGTGCTCGT | 0
CGTTGCACGTGTATTA | -0.01
TGGGCCACGTGGTTAT | -0.09
CAGTACACGTGGGGTA | -0.18
AGGGGCACGTGAGTGC | 0.13
AGTTGCACGTGCAAAT | 0.2
ATGATCACGTGAGTTG | 0.3
AGTGACACGTGAGATA | 0.16
AAGGCCACGTGTTAGT | -0.04
ACGGGCACGTGCGGGG | -0.22
TGTAACACGTGTAGGA | 0.16
AGTCGCACGTGTTTGG | -0.05
TCGGACACGTGTTAGG | 0.07
ATTAGCACGTGCTGGG | -0.13
AGAAGCACGTGTGTGC | -0.07
ATGTCCACGTGTAGGG | 0.01
GTTCCCACGTGGGGGT | -0.26
GAACGCACGTGATGGT | 0.17
TAATTCACGTGGGTCA | 0.12
AAGTCCACGTGGGTTG | -0.12
TTGTTCACGTGTAAGG | 0.27
TAGAGCACGTGCTTGT | -0.23
AATGGCACGTGTGGCG | -0.09
GATGTCACGTGGTGGA | 0.13
AACGGCACGTGGGCTG | -0.21
GATTTCACGTGCTGTT | 0.35

Sequence | relative binding free energy [kcal/mol]
ATCGTCACGTGAGGTC | 0.27
GGTGTCACGTGATAGT | 0.3
GTGATCACGTGGTACG | 0.07
GGTAACACGTGTGTCG | 0.08
TTAATCACGTGCAGGT | 0.28
AGGTCCACGTGTAAGG | 0.34
TAGTTCACGTGTTGGT | 0.27
GGCCTCACGTGGGTGG | -0.04
TGCATCACGTGTGAGG | 0.14
CGCCGCACGTGGGGTG | -0.36
GTAATCACGTGTTTTG | 0.16
GCGGTCACGTGCGGGA | 0.21
ATGTACACGTGGGGAG | -0.1
TGCAACACGTGATTTT | 0.23
AAGTTCACGTGCAAGG | 0.25
ATGATCACGTGGTCTG | -0.07
GTGCTCACGTGGTGGC | 0.33
GGTGGCACGTGTCGGC | 0.01
TGAATCACGTGTTTCG | 0.15
TCATGCACGTGGGAGA | 0.08
GGTCGCACGTGAAGGG | 0.26
GGGGTCACGTGTAACG | 0.33
TGGGTCACGTGCAGCT | 0.02
CAGGGCACGTGTCATG | -0.02
CTTAGCACGTGGTTAA | -0.18
GGCGGCACGTGGTAGT | -0.2

Sequence | relative binding free energy [kcal/mol]
AGGGGCACGTGGGTGA | -0.21
TGACTCACGTGGTATT | 0.25
GTCTGCACGTGAGGCT | 0.34
TAGCTCACGTGGTATG | 0.06
TGACTCACGTGGTGGC | 0.21
TTGCTCACGTGTTGGT | 0.29
TTCTTCACGTGAAATT | 0.49
GTAGGCACGTGGAGGA | -0.02
TTGTTCACGTGGCAGA | 0.2
TTGGGCACGTGGTAAT | 0.01
TTTTACACGTGTCGGT | 0.11
AGGATCACGTGGTGGA | 0.11
TTTCTCACGTGTGGAA | 0.16
AGGAGCACGTGTGGTT | 0.05
TTTTACACGTGGAAAA | 0.23
TGCGGCACGTGGGCGG | -0.33
GGGAACACGTGGAGTT | 0.04
ATTGGCACGTGAGAGC | 0.14
GAGTACACGTGGGCGT | 0.03
TGTGACACGTGTAGCA | 0.01
ATTTACACGTGAGGTT | 0.33
AATTTCACGTGGGGAT | 0.17
TCTTACACGTGGGGCT | 0.02
ATGGACACGTGGAGTC | 0.12
GTGGTCACGTGAGGGA | 0.38
CTGCACACGTGGGGTT | -0.08

Sequence | relative binding free energy [kcal/mol]
GTATTCACGTGGCAGG | 0.17
TTAAACACGTGTTTAG | -0.06
CGTTACACGTGGGCGT | -0.06
TCGTGCACGTGGTGCT | 0
GTTTTCACGTGTGGCA | 0.42
CCGTGCACGTGTTTTT | 0.03
CATGTCACGTGTATGG | 0.18
TTGGACACGTGGGCTC | 0.08
CTAGTCACGTGGTGGC | -0.02
CTTTTCACGTGAAGAT | 0.4
TCGTTCACGTGGTCTT | 0.15
AGGTACACGTGAACGG | 0.25
TTGGGCACGTGTAAGT | 0.13
CTTTTCACGTGTCAGT | 0.29
TGTTACACGTGTACGG | 0.18
CTGGTCACGTGTGCGT | 0.15
TTGGACACGTGATGCA | 0.14
TTGGACACGTGAGAAT | 0.31
AGTTGCACGTGCGGCG | -0.03
TTTCGCACGTGTGGGA | 0.02
GGGTACACGTGGGTGC | -0.08
TGTTTCACGTGTTTTA | 0.31
CAGGGCACGTGTTTGT | -0.14
GCGGTCACGTGGCAGG | 0.09
ATAAACACGTGTGCGT | -0.03
ATCTGCACGTGTAGGT | -0.05

Sequence | relative binding free energy [kcal/mol]
AATGTCACGTGTTTGC | 0.06
GGAATCACGTGGAGTT | 0.2
AAGATCACGTGGATGG | 0.06
CGGTACACGTGGATGT | 0.09
GGGTCCACGTGAAAGG | 0.25
AATCGCACGTGATTGT | 0.09
CTAGTCACGTGGTTTT | -0.05
CGGGTCACGTGGTTGG | 0.11
GGGGTCACGTGCGAGC | 0.14
TGAAGCACGTGTCGGT | -0.1
AGTGCCACGTGCGGTT | -0.31
GGGGGCACGTGCATGT | -0.21
GAAGTCACGTGATTTT | 0.37
AGTTGCACGTGTCAGT | 0.13
TTGGGCACGTGATAGG | 0.1
TTAGACACGTGCTGCT | 0.12
ATTAGCACGTGGAAGG | 0
TGATACACGTGTAGGC | 0.06
CTAGGCACGTGTGGTA | -0.19
TTCCTCACGTGTTAGT | 0.25
TTTTCCACGTGTAATA | 0.13
TGAGTCACGTGAGTAA | 0.2
CATTTCACGTGAAGTA | 0.51
GATTTCACGTGAAGTA | 0.37
TTGTGCACGTGAGAGT | 0.14
TTGCCCACGTGTGGTG | -0.15

Sequence | relative binding free energy [kcal/mol]
AGCGTCACGTGGGCGA | 0
TGTGGCACGTGCGTGG | -0.08
AGATGCACGTGGGGGC | -0.24
CATTTCACGTGTTGGA | 0.08
GAGTTCACGTGATCGG | 0.4
GTGGACACGTGGCGGC | -0.08
TGACGCACGTGGGCTT | -0.17
CTGTACACGTGGATGT | 0.2
CTGTTCACGTGATTAT | 0.26
GTTTACACGTGTCTGG | 0.15
GCAGGCACGTGGGATG | -0.08
ATTTGCACGTGTGACG | 0.02
GTAATCACGTGTGCTG | 0.01
GGAGGCACGTGAAATG | 0.15
AGCGGCACGTGGGTTA | -0.19
ACTGTCACGTGGGCAG | -0.04
GGGGCCACGTGGTCGT | -0.1
TGTACCACGTGGTTCG | -0.02
AATATCACGTGTTGTC | 0.26
GGGTTCACGTGTATAT | 0.32
TGTTACACGTGGGGCC | 0.05
GTTTACACGTGGGATA | 0.03
AGCGGCACGTGTTGGG | -0.08
TGTAGCACGTGTTACT | 0.12
CCGTTCACGTGGGGGG | 0.14
TTAGTCACGTGCCTGG | -0.03

Sequence | relative binding free energy [kcal/mol]
ACTTTCACGTGGATGT | 0.17
GGAGTCACGTGGGAGG | 0.06
TGCTTCACGTGATAGG | 0.32
CTTGACACGTGTGTTC | 0.14
AGAGGCACGTGAATGG | 0.04
ACGGCCACGTGTGGGG | -0.09
TATGGCACGTGTTATG | -0.05
GGCAGCACGTGAGATG | 0.23
TATTACACGTGTTTAA | -0.09
GCGTGCACGTGGCTGT | -0.19
AGAGCCACGTGCGGGT | -0.16
TGCTGCACGTGTGGAT | -0.01
AGCGACACGTGTCGGT | 0.14
TGTAGCACGTGTATAT | 0.01
ATTTACACGTGTTAGA | 0.19
ATAAACACGTGATTGG | 0.1
GAGTGCACGTGTTCAT | 0.04
TTTGTCACGTGTGCCT | 0.1
GGTGCCACGTGGTTGT | -0.06
GATTGCACGTGTGCCG | 0.17
AAGTACACGTGAGTGT | 0.27
TTAATCACGTGGGGCA | -0.05
TAGATCACGTGTATCG | 0.22
TTTCTCACGTGCTGGA | 0.23
GGTATCACGTGTAATC | 0.4
CTGGTCACGTGTTGAA | 0.21

Sequence | relative binding free energy [kcal/mol]
TGTCGCACGTGAGAGA | 0.22
GTCTTCACGTGGAGTT | 0.3
AGTCGCACGTGTGAGT | 0.03
GGGTGCACGTGCTCGG | -0.1
AGGGTCACGTGCGGTA | -0.16
TGCAGCACGTGTATAG | -0.13
GGTGGCACGTGTGTGC | -0.09
GTGTACACGTGGTTAG | 0.01
AGCGTCACGTGGTGAA | 0.06
CGGGGCACGTGTTGAT | 0.04
TTGGACACGTGATAAT | 0.22
AGTTCCACGTGGTGTA | -0.04
GTAAGCACGTGTTGGA | -0.07
TTGTGCACGTGGTTGC | -0.02
GTTGGCACGTGCGGCT | -0.06
GTGTGCACGTGCTTGA | -0.14
GGATTCACGTGATGCG | 0.3
AAGTGCACGTGTCGTT | -0.03
AGGGGCACGTGACATG | -0.09
TTTGGCACGTGGAGAA | -0.01
GGGGCCACGTGCGGGC | -0.22
TTTGGCACGTGAGGAG | 0.23
